# Test results: the supplement of paper PMC10037445
# “And” between values parts separate entries of the source, which are not always exact repeats. Equal entries are not always repeated. ± gives the standard deviation of the averaged measurements. Over roughly 2,900 compounds, “IRF Lucia reporter activity, fold change vs agonist alone” has its median near 0.9; the highest 2% begin near 2.8. This is one part of the list.
# Assays:
# RAW-Dual [1] = assay: IRF Lucia reporter activity, fold change vs agonist alone; cytotoxicity flag (confluency mask): not cytotoxic; higher = enhanced IRF activity
# Summary of the method: (§1)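 Library stock was pin-tooled at 50 nL into 384-well plates of RAW-Dual macrophages (50,000 cells/well, DMEM), followed 1 h later by a PRR agonist, and the cells were kept at 37 °C, 5% CO2. Supernatant collected after 20 hours was read for IRF by QuantiLuc luminescence and for NF-κB by QuantiBlue absorbance at 620 nm. Reporter activity is fold change over agonist-alone wells, and a well counted as cytotoxic when its IncuCyte confluency was below 70% of agonist controls in both mask sets.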
# RAW-Dual [2] = assay: IRF Lucia reporter activity, fold change vs agonist alone; higher = enhanced IRF activity; conditions: library stock concentration (final ~1000-fold dilution): 10 mM, agonist: MPLA (TLR4) […]
# Summary of the method: as §1
# RAW-Dual [3] = assay: IRF Lucia reporter activity, fold change vs agonist alone; cytotoxicity flag (confluency mask): cytotoxic (confluency <70% of control); higher = enhanced IRF activity
# Summary of the method: as §1
# [4] = agonist: 3'3'-cGAMP (STING) 10 ug/mL
# [5] = cytotoxicity flag (confluency mask): not cytotoxic
smiles,measurement,setting,value
CC(=O)N[C@@H](CS)C(=O)O (library stock concentration (final ~1000-fold dilution): 10 mM),IRF Lucia reporter activity,RAW-Dual [1]; [4],1.03
same,IRF Lucia reporter activity,RAW-Dual [1]; agonist: LPS (TLR4) 0.1 ug/mL,0.875
CCCC1CC(C(=O)NC(C(C)Cl)C2OC(SC)C(O)C(O)C2O)N(C)C1.Cl.O (stereo unspecified),IRF Lucia reporter activity,RAW-Dual [2]; [5],1.05
CCCC1CC(C(=O)NC(C(C)Cl)C2OC(SC)C(O)C(O)C2O)N(C)C1.Cl.O (stereo unspecified) (library stock concentration (final ~1000-fold dilution): 10 mM),IRF Lucia reporter activity,RAW-Dual [1]; [4],1.02
same,IRF Lucia reporter activity,RAW-Dual [1]; agonist: LPS (TLR4) 0.1 ug/mL,0.872
CN1CCN(c2ccc(Nc3ncc4cc(C#N)c(=O)n(C5CCCC5)c4n3)cc2)CC1 (library stock concentration (final ~1000-fold dilution): 10 mM),IRF Lucia reporter activity,RAW-Dual [1]; [4],0.0348
same,IRF Lucia reporter activity,RAW-Dual [1]; agonist: LPS (TLR4) 0.1 ug/mL,0.0421
O=c1cc(-c2ccccc2)oc2cc(O)c(O)c(O)c12 (library stock concentration (final ~1000-fold dilution): 10 mM),IRF Lucia reporter activity,RAW-Dual [1]; [4],0.842
same,IRF Lucia reporter activity,RAW-Dual [1]; agonist: LPS (TLR4) 0.1 ug/mL,0.954
O=c1cc(-c2ccccc2)oc2cc(O)c(O)c(O)c12,IRF Lucia reporter activity,RAW-Dual [2]; [5],0.932
CCN(CC)C(=O)C(c1ccccc1)N1CCN(c2ccc(NC(=O)c3ccccc3-c3cccnc3)cc2F)CC1 (stereo unspecified) (library stock concentration (final ~1000-fold dilution): 10 mM),IRF Lucia reporter activity,RAW-Dual [1]; [4],1.05
same,IRF Lucia reporter activity,RAW-Dual [1]; agonist: LPS (TLR4) 0.1 ug/mL,1.02
CCN(CC)C(=O)C(c1ccccc1)N1CCN(c2ccc(NC(=O)c3ccccc3-c3cccnc3)cc2F)CC1 (stereo unspecified),IRF Lucia reporter activity,RAW-Dual [2]; [5],1.17
COc1ccc(C2OCC3C(c4ccc(OC)c(OC)c4)OCC23)cc1OC (stereo unspecified) (library stock concentration (final ~1000-fold dilution): 10 mM),IRF Lucia reporter activity,RAW-Dual [1]; [4],1.35
same,IRF Lucia reporter activity,RAW-Dual [1]; agonist: LPS (TLR4) 0.1 ug/mL,0.899
Cc1c(C)c2c(c(C)c1O)CCC(C)(C(=O)O)O2 (stereo unspecified),IRF Lucia reporter activity,RAW-Dual [2]; [5],1.06
Cc1c(C)c2c(c(C)c1O)CCC(C)(C(=O)O)O2 (stereo unspecified) (library stock concentration (final ~1000-fold dilution): 10 mM),IRF Lucia reporter activity,RAW-Dual [1]; [4],1.07 and 1.1
same,IRF Lucia reporter activity,RAW-Dual [1]; agonist: LPS (TLR4) 0.1 ug/mL,0.982 and 0.759
CC(=O)OCC(=O)NCCCOc1cccc(CN2CCCCC2)c1.Cl,IRF Lucia reporter activity,RAW-Dual [2]; [5],0.94
CC(=O)OCC(=O)NCCCOc1cccc(CN2CCCCC2)c1.Cl (library stock concentration (final ~1000-fold dilution): 10 mM),IRF Lucia reporter activity,RAW-Dual [1]; [4],1.06
same,IRF Lucia reporter activity,RAW-Dual [1]; agonist: LPS (TLR4) 0.1 ug/mL,0.974
N.S=C(S)N1CCCC1,IRF Lucia reporter activity,RAW-Dual [2]; [5],1.34 ± 0.037
N.S=C(S)N1CCCC1 (library stock concentration (final ~1000-fold dilution): 10 mM),IRF Lucia reporter activity,RAW-Dual [1]; [4],0.705 ± 0.088
same,IRF Lucia reporter activity,RAW-Dual [1]; agonist: LPS (TLR4) 0.1 ug/mL,1.261 ± 0.01
CCOC1OC(=O)CC1NC(=O)C1CCCN1C(=O)C(NC(=O)c1ccc(N)c(Cl)c1)C(C)(C)C (stereo unspecified),IRF Lucia reporter activity,RAW-Dual [2]; [5],1.37
CCOC1OC(=O)CC1NC(=O)C1CCCN1C(=O)C(NC(=O)c1ccc(N)c(Cl)c1)C(C)(C)C (stereo unspecified) (library stock concentration (final ~1000-fold dilution): 10 mM),IRF Lucia reporter activity,RAW-Dual [1]; [4],0.945
same,IRF Lucia reporter activity,RAW-Dual [1]; agonist: LPS (TLR4) 0.1 ug/mL,1.51
CN(C)C(CCOc1cccc2ccccc12)c1ccccc1.Cl (stereo unspecified),IRF Lucia reporter activity,RAW-Dual [2]; cytotoxicity flag (confluency mask): cytotoxic (confluency <70% of control),1.02
CN(C)C(CCOc1cccc2ccccc12)c1ccccc1.Cl (stereo unspecified) (library stock concentration (final ~1000-fold dilution): 10 mM),IRF Lucia reporter activity,RAW-Dual [3]; [4],0.796
same,IRF Lucia reporter activity,RAW-Dual [3]; agonist: LPS (TLR4) 0.1 ug/mL,0.92
CS(=O)(=O)c1ccc(-c2cnc(NCc3ccco3)n3cnnc23)cc1 (library stock concentration (final ~1000-fold dilution): 10 mM),IRF Lucia reporter activity,RAW-Dual [1]; [4],0.73
same,IRF Lucia reporter activity,RAW-Dual [1]; agonist: LPS (TLR4) 0.1 ug/mL,1.06
CCn1nc(C2CCN(C(=O)CCO)CC2)nc1-c1cnc(N)c(-c2nnc(C(C)(C)C)o2)n1 (library stock concentration (final ~1000-fold dilution): 10 mM),IRF Lucia reporter activity,RAW-Dual [1]; [4],0.419
same,IRF Lucia reporter activity,RAW-Dual [1]; agonist: LPS (TLR4) 0.1 ug/mL,1.09
Cc1nc2cc(F)c(F)cc2n1-c1cncc(Nc2ccc(C(F)(F)F)cc2)n1 (library stock concentration (final ~1000-fold dilution): 10 mM),IRF Lucia reporter activity,RAW-Dual [1]; [4],0.237
same,IRF Lucia reporter activity,RAW-Dual [1]; agonist: LPS (TLR4) 0.1 ug/mL,1.88
COc1cc2ncnc(Nc3ccc(F)c(Cl)c3)c2cc1OCCCN1CCOCC1.Cl,IRF Lucia reporter activity,RAW-Dual [2]; [5],0.952
COc1cc2ncnc(Nc3ccc(F)c(Cl)c3)c2cc1OCCCN1CCOCC1.Cl (library stock concentration (final ~1000-fold dilution): 10 mM),IRF Lucia reporter activity,RAW-Dual [1]; [4],0.73
same,IRF Lucia reporter activity,RAW-Dual [1]; agonist: LPS (TLR4) 0.1 ug/mL,1.26
O=c1cc(-c2ccc(O)c(O)c2O)oc2ccccc12 (library stock concentration (final ~1000-fold dilution): 10 mM),IRF Lucia reporter activity,RAW-Dual [1]; [4],0.749
same,IRF Lucia reporter activity,RAW-Dual [1]; agonist: LPS (TLR4) 0.1 ug/mL,0.923
Cl.NC12CC3CC(CC(C3)C1)C2 (library stock concentration (final ~1000-fold dilution): 10 mM),IRF Lucia reporter activity,RAW-Dual [1]; [4],1.06
same,IRF Lucia reporter activity,RAW-Dual [1]; agonist: LPS (TLR4) 0.1 ug/mL,1.14
Cl.NC12CC3CC(CC(C3)C1)C2,IRF Lucia reporter activity,RAW-Dual [2]; [5],1.07
Cc1cnc(Nc2ccc(F)cc2Cl)nc1-c1c[nH]c(C(=O)NC(CO)c2cccc(Cl)c2)c1 (stereo unspecified) (library stock concentration (final ~1000-fold dilution): 10 mM),IRF Lucia reporter activity,RAW-Dual [1]; [4],0.474
same,IRF Lucia reporter activity,RAW-Dual [1]; agonist: LPS (TLR4) 0.1 ug/mL,1.16
